# Assay results as given in PubChem BioAssay AID2546 (National Center for Advancing Translational Sciences (NCATS), 2010).
# About 11,000 (3.5%) of roughly 310,000 compounds were called active. The inconclusive results got no clear call from the source; some entries with a clear call stand among them for comparison. The call rests on the fitted dose curve; in most records, active means well fitted inhibition curve with a large enough effect; inconclusive means small, poorly fitted or top-dose-only effect, or effect the other way; inactive means flat fitted curve, though single readings scatter. No potency is given beside an inconclusive call; the fits are too rough.
# Assay: VP16 counterscreen qHTS for inhibitors of ROR gamma transcriptional activity;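 further: Gal4-VP16 expression switched on by copper sulfate through the metallothionein promoter; nearly all actives have a fitted effect of over 50% in size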
# Details: Drosophila S2 Gal4-VP16 UAS-luciferase, luminescence, 20 h; series mostly up to 53.6 µM
# Potency means the concentration at half of the fitted maximal effect; tags describe the fitted curve by direction and shape.
row,SMILES,Potency
1,CN1/C(=C\C=N\NC(=O)c2cccnc2)C(C)(C)c2ccccc21,active: 0.891 µM
2,CCc1ccc(OCC(=O)N2c3ccccc3CCc3ccccc32)cc1,"inconclusive [inhibitor, single point]"
3,COc1ccc(CCN2C(=O)C(Oc3ccccc3C)C2c2ccc3c(c2)OCO3)cc1OC (configuration not stated),"inconclusive [inhibitor, single point]"
4,CCOC(=O)c1c(C)[nH]c2ccc3c(c12)CN1CCc2cc(OC)ccc2[C@@H]1O3,"inconclusive [inhibitor, single point]"
5,CCOC(=O)C1=C([Si](C)(C)C)c2ccccc2N(S(=O)(=O)C(F)(F)F)C1C(=O)OCC (configuration not stated),"inconclusive [inhibitor, single point]"
6,Cn1c(=O)c2c(SCC(=O)N3CCCC3)nc(-c3ccccc3)nc2n(C)c1=O,inactive
7,C=CCSc1nsc(NC(=O)Nc2cccc(C(C)=O)c2)n1,"inconclusive [inhibitor, single point]"
8,O=C(CCc1nc2ccccc2c(=O)[nH]1)Nc1ccc(Cl)c(Cl)c1,inactive
9,Cc1cccc[n+]1CC(=O)/C=C1\N(C)c2ccccc2C1(C)C,active: 6.31 µM
10,COc1cc(CCc2ccc3c(c2)OCO3)oc(=O)c1,"inconclusive [inhibitor, single point]"
11,C[C@@H]1CCC[C@]2(O[C@H](CCO)C[C@H](O)[C@H]2O)O1,"inconclusive [inhibitor, full curve, poor fit]"
12,COc1ccc(Cl)cc1C(=O)NC(C)C,inactive
13,O=C(NNC(=O)c1ncc(Cl)c(Cl)c1Cl)c1ccc(F)cc1,active: 5.01 µM
14,COc1ccccc1C(=O)NC(=S)N1CCCc2ccccc21,"inconclusive [inhibitor, single point]"
15,O=C(CCN1C(=O)C2C3C=CC(C3)C2C1=O)NCc1cccnc1 (configuration not stated),inactive
16,CCOC(=O)c1cccc(NC(=O)c2ccccc2C)c1,"inconclusive [activator, partial curve]"
17,Cc1ccccc1OCC(=O)Nc1ccncc1,active: 11.2 µM
18,COC(=O)c1cccc(NC(=O)/C=C/c2ccc3c(c2)OCO3)c1,"inconclusive [inhibitor, single point]"
19,COc1ccc(CNCC(O)(c2ccccc2)c2ccccc2)cc1,"inconclusive [inhibitor, single point]"
20,O=C(CSc1n[nH]c(=O)n1C1CC1)Nc1cc(Cl)ccc1Oc1ccccc1,"inconclusive [inhibitor, single point]"
21,O=[N+]([O-])c1ccc(-c2nc(-c3ccncc3)no2)cc1,"inconclusive [activator, partial curve, poor fit]"
22,CCCCNC(=O)N(C)c1nc2ccccc2s1,"inconclusive [activator, partial curve, poor fit]"
23,Cc1ccc(NC(=O)CC2C(=O)N(Cc3ccccc3)C(=S)N2NC(=O)c2ccccc2)c(C)c1 (configuration not stated),"inconclusive [inhibitor, single point]"
24,Cc1ccc(N2/C(=N/c3nc(C)cc(C)n3)NC(=O)CC2C(=O)O)cc1 (configuration not stated),inactive
25,O=C(CSc1nc(-c2ccco2)cc(C(F)(F)F)n1)N1CCc2ccccc2C1,"inconclusive [inhibitor, single point]"
26,S=C(NCCc1cccc(Cl)c1)NCc1ccccc1,"inconclusive [inhibitor, single point]"

row,SMILES,Potency
1,O=C(c1ccccc1F)N1CCN(Cc2ccc3c(c2)OCO3)CC1,inactive
2,C/C(=N\Nc1cc(Cl)nc(C)n1)c1ccccc1,inactive
3,Cc1noc(C)c1C(=O)Nc1ccc(C#N)cc1,inactive
4,Cc1cc(C)nc(SCc2ccc(C(=O)N/N=C3\CCCC(=O)C3)cc2)n1,inactive
5,C=CCN1C(=O)N/C(=C/c2ccc(N3CCOCC3)o2)C1=O,active: 5.01 µM
6,CCCN1C(=O)/C(=N\OCC(=O)NCC(F)(F)F)c2ccccc21,inactive
7,N#Cc1ccsc1NC(=O)c1cnccn1,inactive
8,Cc1cccc(SCC(=O)Nc2ccc3c(c2)OCCO3)c1,"inconclusive [activator, full curve]"
9,CCS(=O)(=O)N1CCN(C(=O)c2ccco2)CC1,inactive
10,O=S(=O)(NC(=S)NC1CCCCC1)c1cccs1,inactive
11,O=C(NC(=S)NC1CC1)c1cccnc1,"inconclusive [inhibitor, single point]"
12,CC(C)(C)c1ccc(C(=O)N/C(N)=N/c2nc3ccccc3o2)cc1,inactive
13,C=CCNCCCCOc1ccc(Br)cc1C,inactive
14,CC1=C/C(=N\NC(=O)c2ccccc2)CC1,"inconclusive [inhibitor, single point]"
15,COc1ccc(/C=N/NC(=S)SC)cc1OC,active: 3.16 µM
16,CCN(CC)CCN1C(=O)/C(=C\c2ccc(Cl)c([N+](=O)[O-])c2)SC1=Nc1ccc(OC)cc1,"inconclusive [inhibitor, single point]"
17,CC1(C)C2CCC1(C)C(Nc1ccccc1)C2 (configuration not stated),inactive
18,COc1cccc(-n2nc(C#N)c(Cl)cc2=O)c1,active: 7.08 µM
19,Cc1c(C(=O)N2CCCCC2C)sc2ncnc(N3CCc4ccccc4C3)c12 (configuration not stated),inactive
20,CC1=C(C(=O)Nc2ccccc2C(=O)NCc2ccccc2)SCCO1,inactive
21,Cc1c(Cl)cccc1NC(=S)NN1CCOCC1,"inconclusive [inhibitor, single point]"
22,COc1ccc(NCC(O)COc2ccc(C(C)(C)C)cc2)cc1 (configuration not stated),"inconclusive [inhibitor, single point]"
23,CC(C)c1ccc(N2C(=O)CC(NNC(=O)c3ccccc3Cl)C2=O)cc1 (configuration not stated),active: 3.16 µM
24,Nc1ccccc1C(=O)/C=C/c1ccc2c(c1)OCO2,"inconclusive [inhibitor, single point]"
25,CCO[C@H]1O[C@@H]([C@H](COCc2ccccc2)OCc2ccccc2)[C@@H](OCc2ccccc2)[C@H]1O,inactive
26,CCOc1ccc2c(c1)-c1c(ssc1=S)C(C)(C)N2C(=O)CSC1=NCCS1,inactive
